For 31 molecules, binding signal results are on record in publication PMC9911399, “Two distinct binding modes provide the RNA-binding protein RbFox with extraordinary sequence specificity”.

Changes are numbered by the printed parent chain; changes in the protein carry UniProt numbers. This is one part of the list.

The chains are these.
B1: AGAUGGA (DNA:RNA)
RNA: GGGAGACCGGAAUUCAGAUUGUCCAGAUGGAUUAAAUCCCGUCGUAGCCACCA
DNA 1: CAATCTGAATTCCGGTCTCCC
DNA 2: TGGTGGCTACGACGGGATT
B2: UGGCGAG (DNA:RNA)
RNA: B1 RNA with A25U, A27G, U28C, G30A, A31G
DNA 1: CAATCTGAATTCCGGTCTCCC
DNA 2: TGGTGGCTACGACGGGATT
B3: AUGUAGC (DNA:RNA)
RNA: B1 RNA with G26U, A27G, G29A, A31C
DNA 1: CAATCTGAATTCCGGTCTCCC
DNA 2: TGGTGGCTACGACGGGATT
B4: GGACCUU (DNA:RNA)
RNA: B1 RNA with A25G, U28C, G29C, G30U, A31U
DNA 1: CAATCTGAATTCCGGTCTCCC
DNA 2: TGGTGGCTACGACGGGATT
B5: GGUCGGC (DNA:RNA)
RNA: B1 RNA with A25G, A27U, U28C, A31C
DNA 1: CAATCTGAATTCCGGTCTCCC
DNA 2: TGGTGGCTACGACGGGATT
B6: UAAUCAC (DNA:RNA)
RNA: B1 RNA with A25U, G26A, G29C, G30A, A31C
DNA 1: CAATCTGAATTCCGGTCTCCC
DNA 2: TGGTGGCTACGACGGGATT
B7: ACGUGAG (DNA:RNA)
RNA: B1 RNA with G26C, A27G, G30A, A31G
DNA 1: CAATCTGAATTCCGGTCTCCC
DNA 2: TGGTGGCTACGACGGGATT
B8: CAUAAGU (DNA:RNA)
RNA: B1 RNA with A25C, G26A, A27U, U28A, G29A, A31U
DNA 1: CAATCTGAATTCCGGTCTCCC
DNA 2: TGGTGGCTACGACGGGATT
B9: UAGCCUG (DNA:RNA)
RNA: GGGAGACCGGAAUUCAGAUUGUCCUAGCCUGUUAAAUCCCGUCGUAGCCACCA
DNA 1: CAATCTGAATTCCGGTCTCCC
DNA 2: TGGTGGCTACGACGGGATT
B10: AUAUGUC (DNA:RNA)
RNA: B1 RNA with G26U, G30U, A31C
DNA 1: CAATCTGAATTCCGGTCTCCC
DNA 2: TGGTGGCTACGACGGGATT
B11: CCCUAAC (DNA:RNA)
RNA: B1 RNA with A25C, G26C, A27C, G29A, G30A, A31C
DNA 1: CAATCTGAATTCCGGTCTCCC
DNA 2: TGGTGGCTACGACGGGATT
B12: CACUGGU (DNA:RNA)
RNA: B1 RNA with A25C, G26A, A27C, A31U
DNA 1: CAATCTGAATTCCGGTCTCCC
DNA 2: TGGTGGCTACGACGGGATT
B13: CCCUCGC (DNA:RNA)
RNA: B1 RNA with A25C, G26C, A27C, G29C, A31C
DNA 1: CAATCTGAATTCCGGTCTCCC
DNA 2: TGGTGGCTACGACGGGATT
B14: UCGUUUU (DNA:RNA)
RNA: B9 RNA with A26C, C28U, C29U, G31U
DNA 1: CAATCTGAATTCCGGTCTCCC
DNA 2: TGGTGGCTACGACGGGATT
B15: GUGGUCG (DNA:RNA)
RNA: B9 RNA with U25G, A26U, C28G, C29U, U30C
DNA 1: CAATCTGAATTCCGGTCTCCC
DNA 2: TGGTGGCTACGACGGGATT
B16: CGAUUAA (DNA:RNA)
RNA: B1 RNA with A25C, G29U, G30A
DNA 1: CAATCTGAATTCCGGTCTCCC
DNA 2: TGGTGGCTACGACGGGATT
B17: UUCUCGC (DNA:RNA)
RNA: B1 RNA with A25U, G26U, A27C, G29C, A31C
DNA 1: CAATCTGAATTCCGGTCTCCC
DNA 2: TGGTGGCTACGACGGGATT
B18: UAAAAAG (DNA:RNA)
RNA: B9 RNA with G27A, C28A, C29A, U30A
DNA 1: CAATCTGAATTCCGGTCTCCC
DNA 2: TGGTGGCTACGACGGGATT
B19: UCCUUGC (DNA:RNA)
RNA: B1 RNA with A25U, G26C, A27C, G29U, A31C
DNA 1: CAATCTGAATTCCGGTCTCCC
DNA 2: TGGTGGCTACGACGGGATT
B20: GAGCUAC (DNA:RNA)
RNA: B9 RNA with U25G, C29U, U30A, G31C
DNA 1: CAATCTGAATTCCGGTCTCCC
DNA 2: TGGTGGCTACGACGGGATT
B21: CGGUAUA (DNA:RNA)
RNA: B1 RNA with A25C, A27G, G29A, G30U
DNA 1: CAATCTGAATTCCGGTCTCCC
DNA 2: TGGTGGCTACGACGGGATT
B22: UUGAACC (DNA:RNA)
RNA: B9 RNA with A26U, C28A, C29A, U30C, G31C
DNA 1: CAATCTGAATTCCGGTCTCCC
DNA 2: TGGTGGCTACGACGGGATT
B23: CCGUAAG (DNA:RNA)
RNA: B9 RNA with U25C, A26C, C28U, C29A, U30A
DNA 1: CAATCTGAATTCCGGTCTCCC
DNA 2: TGGTGGCTACGACGGGATT
B24: AAUCCAG (DNA:RNA)
RNA: B9 RNA with U25A, G27U, U30A
DNA 1: CAATCTGAATTCCGGTCTCCC
DNA 2: TGGTGGCTACGACGGGATT
B25: AGUUCGG (DNA:RNA)
RNA: B1 RNA with A27U, G29C, A31G
DNA 1: CAATCTGAATTCCGGTCTCCC
DNA 2: TGGTGGCTACGACGGGATT
B26: UGGUAAU (DNA:RNA)
RNA: B1 RNA with A25U, A27G, G29A, G30A, A31U
DNA 1: CAATCTGAATTCCGGTCTCCC
DNA 2: TGGTGGCTACGACGGGATT
B27: CAAAAGC (DNA:RNA)
RNA: B1 RNA with A25C, G26A, U28A, G29A, A31C
DNA 1: CAATCTGAATTCCGGTCTCCC
DNA 2: TGGTGGCTACGACGGGATT
B28: GUCCUCU (DNA:RNA)
RNA: B9 RNA with U25G, A26U, G27C, C29U, U30C, G31U
DNA 1: CAATCTGAATTCCGGTCTCCC
DNA 2: TGGTGGCTACGACGGGATT
B29: CAUCAAG (DNA:RNA)
RNA: B9 RNA with U25C, G27U, C29A, U30A
DNA 1: CAATCTGAATTCCGGTCTCCC
DNA 2: TGGTGGCTACGACGGGATT
B30: UACGUGA (DNA:RNA)
RNA: B1 RNA with A25U, G26A, A27C, U28G, G29U
DNA 1: CAATCTGAATTCCGGTCTCCC
DNA 2: TGGTGGCTACGACGGGATT
B31: UAAAAGU (DNA:RNA)
RNA: B1 RNA with A25U, G26A, U28A, G29A, A31U
DNA 1: CAATCTGAATTCCGGTCTCCC
DNA 2: TGGTGGCTACGACGGGATT

This assay deals with T1, RBFOX1 RRM (Homo sapiens, UniProt Q9NWB1 109-208).
T1 sequence: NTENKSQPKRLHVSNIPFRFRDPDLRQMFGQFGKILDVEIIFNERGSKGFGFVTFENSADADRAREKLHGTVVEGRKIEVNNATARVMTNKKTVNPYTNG
As to the kind of experiment: EMSA; HiTS-Eq, 1 nM pool, 10 min; buffer printed only for the single-RNA assays: 10 mM Tris pH 7.5, 150 mM NaCl, 3.4 mM EDTA, 0.001% NP-40, 30 C. As to conditions: tags: His6 N-terminal (pET28a); label: 5' 32P. The procedure, abridged: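 Relative association constants, normalised to the cognate motif, were derived by comparing read counts of each RNA species with those of the control reaction. The RNA sequenced was the free fraction, separated by 8% native PAGE after a 10 min equilibration in 50 µL of 1 nM 5′-radiolabelled RNA (7 randomized nucleotides) with increasing concentrations of purified wild-type or mutant RbFox RRM.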
For orientation: A gel shift assay detects complexes by their altered migration in electrophoresis.
Take B1: the binding signal is 0.00205 KA relative to UGCAUGU. The result for B2 reads 0.0215 KA relative to UGCAUGU; that for B3, 0.00979 KA relative to UGCAUGU. Then B4, with 0.015 KA relative to UGCAUGU; and B5, with 0.00742 KA relative to UGCAUGU; and B6, with 0.00552 KA relative to UGCAUGU. The result for B7 reads 0.00861 KA relative to UGCAUGU; that for B8, 0.00453 KA relative to UGCAUGU. With B9, the binding signal was 0.0274 KA relative to UGCAUGU. Then B10, with 0.0093 KA relative to UGCAUGU; and B11, with 0.000399 KA relative to UGCAUGU.

Turning to B12, the binding signal is 0.00963 KA relative to UGCAUGU. The result for B13 reads 0.012 KA relative to UGCAUGU.

For B14, the binding signal was 0.0134 KA relative to UGCAUGU. Then B15, with 0.0242 KA relative to UGCAUGU. The result for B16 reads 0.00204 KA relative to UGCAUGU. The result for B17 reads 0.0146 KA relative to UGCAUGU; that for B18, 0.0059 KA relative to UGCAUGU. For B19, the binding signal was 0.0155 KA relative to UGCAUGU. The result for B20 reads 0.0141 KA relative to UGCAUGU. The result for B21 reads 0.00273 KA relative to UGCAUGU; that for B22, 0.0107 KA relative to UGCAUGU. Then B23, with 0.00756 KA relative to UGCAUGU; and B24, with 0.00117 KA relative to UGCAUGU.

Turning to B25, the binding signal is 0.0164 KA relative to UGCAUGU.

Turning to B26, the binding signal was 0.0117 KA relative to UGCAUGU.

For the molecule B27, the binding signal is 0.00183 KA relative to UGCAUGU. The result for B28 reads 0.0115 KA relative to UGCAUGU; that for B29, 0.00352 KA relative to UGCAUGU. The result for B30 reads 0.00812 KA relative to UGCAUGU; that for B31, 0.00626 KA relative to UGCAUGU.
